From the supplement of paper PMC10126150
Values marked as one replicate rest on one cluster of the flow cell; about a third of the high ones do not repeat.

Test system: ATP
Assay: switch fluorescence ratio, 500 uM ATP over buffer (Cy3 cluster intensity, sum of 5 cycles each) (fold (ratio)); higher = stronger signal-on switching upon ATP binding; sequences stand for … in TCGTCGGCAGCGTCAGATGTGTATAAGAGACAGTTTTTTTTTTTTTTTTTTTTTTTTT…TC
Details: aptamer strand: ATP DNA aptamer (quencher-CACCTGGGGGAGTATTGCGGAGGAAGG + anchor), 100 nM annealed; ATP concentration: 500 uM; one replicate
Method in brief: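 Cy3-labelled switching-strand clusters on a modified Illumina MiSeq flow-cell were annealed to 100 nM quencher-labelled ATP aptamer and imaged first in selection buffer, then after 15 min with 500 uM ATP at 22 °C. NaOH stripping and re-annealing separated each of five buffer/ATP cycles, and clusters outside 100-1000 RFU were excluded. The fluorescence ratio sums target-cycle Cy3 intensity over buffer-cycle Cy3 intensity per cluster and averages it per switch-domain sequence.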
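Also: ATP exposure 15 min at 22 °C before imaging.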

Sequence	switch fluorescence ratio
GAGTCCAGGT	2.09
AGTACATCGG	0.994
AGAGAGTTG	1.01
AATGATATGT	0.942
TGGATATCTT	1
TTATGGTGTG	0.994
TATCTTAACC	1.03
GTCAGGCGGC	0.994
ATGCGAGCGT	0.96
ATGGAGCG	1.02
GAAATCCTTG	1.05
TAATTATGGT	1.02
GTCGTCGTCA	1.03
AGTCAATGGT	0.998
GTGTACACGC	1.01
AGCGTTCATC	1.01
CGGCTACCTC	1.14
GGCGAACTTC	1.03
GTAGAAATCT	1.02
TTTGCTGAAG	0.99
CGACGGGATG	1.08
AGACGTACGA	1.4
AAACGATGTC	0.968
GATTTTGCA	0.966
CCGATAAAGG	1.48
TTCGTTGGT	0.999

Sequence	switch fluorescence ratio
AGTGACCGCG	0.92
CGGGGACGTT	1.01
CACTAGACGT	1.28
CGGGTGTGCT	0.964
CTCTGGGGAC	1.65
CGCTGCGCGG	1
ATAGCCCAAA	0.97
TAAGGAGTCA	1.06
TTTAAAGGAA	0.969
AGATCTGTGG	1.01
GCCAGTACAA	1.04
TGGTTTGCAC	1.12
ATTTTTAGG	1.01
TCCTAAGCTT	1.47
TGTTGAGCGT	0.957
GTGTCGCGTT	0.985
ATATCACGAC	1.1
CCCCTACTAG	1.29
CAAGCTGGTG	1.11
CCGCTGAAAG	1.06
ATATGTGTTA	0.971
GAAGGCCAAC	1.03
ACACATGGCG	0.981
CACGCTGTCA	1.01
AAGTCGCCGG	1
CAAACTTCCA	1.18

Sequence	switch fluorescence ratio
ACGCCCAGTA	1.05
CAAATGCTGA	0.991
TAAGGCAACG	0.999
CGTTACTATC	1.04
GTTTCCACCT	1.14
CTGGCCCGTT	0.975
GCATATATCG	0.97
CGGTCAGGT	0.94
TTAATGCGT	0.984
GTACTTTGGT	0.97
AGTACGAGTT	0.979
GATTGATACC	0.999
GTCTTGGAAT	0.993
CCAATCGGGT	1.03
TATGAAGGCG	1.02
ACCACTCCTG	1.07
CATTATCAGT	0.973
AGGATGTGT	0.989
GGTGCGGGAA	1.01
TACGTACAAT	1.46
GACACTTATA	1.1
TCAGGTGAAG	1.14
TTTCACTCTT	1.04
TATTCTGCGT	0.984
AATATTGGTC	0.964
TTACAGCGCA	1.03

Sequence	switch fluorescence ratio
CGTGTACGAG	0.988
AATTGGGGC	1.05
GAGATGGGC	1.15
CGCACAAGGT	1.1
GCACATAACA	1.12
GCATTGTGCT	0.995
GCAGAGCTAT	1
TCCAACTCCT	1.07
GAGAGAAGCC	1
CCCCGTACGC	3.08
TCGCTTTTTC	1.1
CTACAAACGA	1.35
CAGTATGCTT	0.955
CTCGCAGCA	1.92
AGTAACAAAG	1.02
ACAGGGTAT	1.01
GAGTGGTCCA	1.03
AGGCAAGTCG	0.998
CATTTATTCA	0.979
TAAGGCGCT	0.97
GCTCACCTTT	1.02
CATTGTCAGC	0.988
GGAGCTAACG	1.64
GTTCGTTAAA	1.04
AAGTCTGCCT	1
GACACTGCGA	1.52

Sequence	switch fluorescence ratio
ATTTACCCAA	1.03
CAGTCCAGTT	1.02
TAGGCATTGT	1.01
ACTAGTTGT	1
AGTATGTTGC	0.984
GTGGGACAGA	1.03
TCATGTGGGC	1.05
CGCGTCTGAG	1.01
TCATAAGGTA	0.987
ACTTGGGTTG	0.961
GGGCTGATGT	1.01
TACGAATCGT	0.981
AGAGAACGAT	1.02
GAGCATGTAC	4.56
GATTTTGAAT	1.02
GCTTAAATAT	0.99
TGCGCTTAG	0.987
GTTCAGCGTT	0.994
GGCGACAGC	0.988
GCATGTCGTG	1.01
GGTGTCGCA	1
AGCTGCCCGT	0.963
CATGGATAGA	1.02
TTGAGATTCA	0.988
GACGCACAA	3.93
TGGGGCGATC	1.06

Sequence	switch fluorescence ratio
AGACGTGGGT	1.03
CTTAAAGCTA	1.07
GACTTAAC	1.08
TCATAGATGC	1.02
CCTTGTGTCG	0.979
CTTGAATACG	1.11
GTTATGTCCT	0.975
GCCAAAACGG	1.03
ACGCGACTTG	1.02
AAAAAAGCTA	0.998
AAGTGGCGGG	0.999
CAGTGACTTG	0.975
CGCTTCAGGG	1.07
TGGACGAGGC	1.02
AATAGGGGTC	1.02
GAAAGTGTTT	1.05
GGTGAAGAGA	0.973
ATGTTCATGC	1.02
GAGGCCGGGT	1.07
CTGGATGTGC	0.979
CCCGACCTAC	4.12
ATATAGATCG	1.03
TGTGTTGCCG	1.05
GATACGGGGG	0.92
CAAGATTACA	1.01
CGAAATGGA	0.957

Sequence	switch fluorescence ratio
AAAGGCCTTT	1.02
ACAGTTATGT	0.979
GTTACCGCGG	1.01
CGGGCTCGCA	0.989
TATGGTTGAA	0.933
ATACATAA	1.05
TGATAGGTCG	1.07
GCACCCTAGG	1.28
GGAGCATGTA	1.06
ACCTTGGGTA	0.993
TTTGACCGCC	1.85
TTGCCCCTTG	1.02
TGTTGGTCCA	0.987
AGATGCACCG	1.18
ACCAGGTACC	0.975
TTCGAGGAGT	1.01
TATCTAAACG	0.994
TCATACTAAC	1.14
CTATGCTGCA	1.03
GGCACTTTAT	1.03
ATTTCGGGGC	0.963
ATGACTAAGG	0.98
AAGGCGTTAT	0.989
CCACATGCTC	1.59
TGACAACATA	1.04
ATAATTTACT	1.08

Sequence	switch fluorescence ratio
ATGTCCTGGG	0.986
AGATCGGATT	1.01
CCAGACAGAA	0.976
TGTCCTACGG	1.05
CGGCAGGGCA	0.96
GTTCCGGTGC	1.6
TGTTAAAGGT	1.04
GATATTGGAA	0.965
TACTCAACTA	1.14
AGGTTTCGGG	0.992
TGTGGGTCGA	0.959
ATCGGCTTTC	1
CGCAAAGCAT	1.05
GTTCGAAGAA	0.998
CTGTGCCCGG	1.04
GACGCTGATG	1.01
TTGTATGTAT	1.02
TTGATAGGAG	0.961
TTCCCTTGTA	0.958
